# Experimental data from PubChem BioAssay AID463173 (ICCB-Longwood Screening Facility, Harvard Medical School, 2010).
# Hit rate of the full screen: of about 52,000 compounds, about 1,700 (3.3%) were called active. Rule as the data show it: active = survival mostly below about 52% (no sharp cut-off); inactive = mostly above about 56%. The list shows a part of the results.
# Test system: Wild type
# Assay: growth inhibition of S. aureus wild type versus tarO mutant, primary screen, teichoic acid synthesis inhibitors, RN4220, OD600 (AID 463173)
# Conditions: S. aureus RN4220 wild type/DeltatarO growth, OD600, 18 h, stronger effect = lower value, screened at 18.75 µg/mL (by protocol)
row,Compound,survival
1,COc1ccc2c(c1)c(=O)c(S(=O)(=O)c1ccc(Cl)cc1)cn2Cc1cc(C)ccc1C,inactive: 81%
2,Cc1ccc(NC(=O)CN2C(=O)C(c3ccc(C)cc3)=NC23CCCCCC3)cc1,inactive: 73%
3,Cc1ccc(C)c(N2CCN(C(=O)CCS(=O)(=O)c3ccc4c(c3)oc(=O)n4C)CC2)c1,inactive: 115%
4,CCc1ccc(NC(=O)c2cccc(N3CCCS3(=O)=O)c2)cc1,inactive: 68%
5,CCN(CC)C(=O)c1sc2c(c1C)c(=O)n(CCc1ccccc1)c(=O)n2Cc1ccc(C)cc1,inactive: 71%
6,CCOc1cc2c(cc1OCC)C(CC(=O)OC)N(C(=O)Nc1cc(OC)ccc1OC)CC2 (configuration not stated),inactive: 75%
7,CCN1CCSc2ccc(C(=O)NCc3ccc(F)cc3)cc21,inactive: 118%
8,CCCCNC(=O)c1cc(-c2cccnc2)nc2ccc(S(=O)(=O)NCCCC)cc12,inactive: 65%
9,COc1ccc(NCc2cccn2-c2nnc(N3CCOCC3)s2)cc1OC,inactive: 72%
10,Cc1ccc(CNC(=O)CCSCc2cnn(-c3ccccc3)c2-n2cccc2)cc1,inactive: 77%
11,COc1ccc(CNC(=O)Cn2ncc3c(=O)oc4ccccc4c32)c(OC)c1,inactive: 89%
12,Cc1csc2nc(COC(=O)c3cccc(NC(=O)COc4ccccc4Cl)c3)cc(=O)n12,inactive: 78%
13,CCc1cccc(NC(=O)Cc2nc(-c3ccc(OC)cc3)no2)c1,inactive: 99%
14,COCCCNC(=O)c1nn(C)c2c1CS(=O)(=O)c1ccccc1-2,inactive: 106%
15,COc1ccc(-c2cn3c(n2)sc2cc(C(=O)NC(C)C45CC6CC(CC(C6)C4)C5)ccc23)cc1 (configuration not stated),inactive: 93%
16,COc1ccc(CNC(=O)CC2N=C3c4ccccc4N=C(SCC(=O)Nc4ccc(C(C)C)cc4)N3C2=O)cc1 (configuration not stated),inactive: 97%
17,COC(=O)CCCn1c(-c2ccc(C)cc2)c(C)n2c3c(=O)n(C)c(=O)n(C)c3nc12,inactive: 79%
18,O=C(CSc1nnc2[nH]c(=O)cc(-c3ccccc3)n12)Nc1ccc(OC(F)(F)F)cc1,inactive: 74%
19,COCc1cc(C)nc2sc3c(c12)NC(c1ccccc1C(=O)O)N(c1cccc(C(F)(F)F)c1)C3=O (configuration not stated),inactive: 113%
20,COc1cc([N+](=O)[O-])ccc1NC(=O)c1nc2ccccc2n(C)c1=O,inactive: 82%
21,Cc1ccc(S(=O)(=O)c2nc(-c3cccc(Br)c3)oc2N2CCCCCC2)cc1,inactive: 55%
22,CCOC(=O)C1CCN(S(=O)(=O)c2cc3c4c(c2)C(C)C(=O)N4CCC3)CC1 (configuration not stated),inactive: 88%

row,Compound,survival
1,Cc1cccc(C(=O)Nc2c(C(=O)N3CCN(c4ccc(F)cc4)CC3)oc3ccccc23)c1,inactive: 70%
2,CC1Cc2cc(C(=O)NC3CCCCC3)ccc2O1 (configuration not stated),inactive: 111%
3,CCn1ccc2c(OCC(=O)Nc3ccc(C)c(Cl)c3)cccc2c1=O,inactive: 47%
4,COc1cccc(N2CCN(C(=O)CCSCc3ccccc3F)CC2)c1,inactive: 75%
5,CCN(CC)c1cc(C)c2cc(NC(=O)c3cc(OC)cc(OC)c3)ccc2n1,inactive: 65%
6,Cc1ccc(S(=O)(=O)N(CC(=O)Nc2ccc(F)cc2F)Cc2ccc(F)cc2)cc1,inactive: 79%
7,Cc1cc(=O)n(Cc2c(F)cccc2Cl)c2c1c(C)nn2-c1cccc(F)c1,inactive: 90%
8,O=C(Cc1ccc(Cl)cc1)NCC(c1cccs1)S(=O)(=O)c1ccccc1 (configuration not stated),inactive: 66%
9,CCCSc1ncc(Cl)c(C(=O)Nc2sc(C(C)=O)c(C)c2C(=O)OCC)n1,inactive: 80%
10,COc1ccccc1C(=O)Nc1cccc(C(=O)OCc2cc(=O)n3c4c(sc3n2)CCCC4)c1,inactive: 79%
11,CCOc1ccc(NC(=O)Cn2c(=O)n(CC3CCC(C(=O)NCCc4ccccc4)CC3)c(=O)c3ccccc32)cc1 (configuration not stated),inactive: 73%
12,COc1ccc(NC(=O)CSc2oc(-c3ccco3)nc2S(=O)(=O)c2ccc(C)cc2)c(OC)c1,inactive: 70%
13,CC(C)NC(=O)C1CCN(S(C)(=O)=O)CC1,inactive: 109%
14,CC(=O)Nc1ccc(NC(=O)c2cc(CN3CCCC3)on2)cc1,inactive: 80%
15,COc1cc(C(=O)NC(c2ccccc2Cl)c2cc(Cl)c3cccnc3c2O)cc(OC)c1OC (configuration not stated),inactive: 100%
16,Cc1ccc(C)c(NC(=O)CSc2nnc3[nH]c(=O)cc(-c4ccccc4)n23)c1,inactive: 119%
17,CC(C)(C)OC(=O)N1CCC(N2CCN(Cc3ccccc3)C(=O)C2=O)CC1,inactive: 89%
18,Cc1onc(-c2ccccc2Cl)c1C(=O)Oc1ccccc1F,inactive: 71%
19,CCOC(=O)c1ccccc1NC(=O)NCc1c(-n2cccc2)sc2c1CCCC2,inactive: 77%
20,CCOc1ccc(NC(=O)C(CC(C)C)N2Cc3ccccc3C2=O)cc1 (configuration not stated),inactive: 134%
21,Cc1c(CNC(C)CCc2ccccc2)c(C(=O)O)c(C)n1Cc1ccc(F)cc1 (configuration not stated),inactive: 93%
22,Cc1nc2ccccc2c(=O)n1/N=C1\C(=O)N(C)c2ccccc21,inactive: 108%

row,Compound,survival
1,CN(C)S(=O)(=O)c1ccc2c(c1)N(CC(=O)Nc1cccc(C(F)(F)F)c1)C(=O)CS2,inactive: 71%
2,CC(=O)Nc1ccccc1OC(=O)N1CCOCC1,inactive: 103%
3,COc1cccc(C2c3c(oc4cc(C)cc(C)c4c3=O)C(=O)N2CCc2ccc(OC)c(OC)c2)c1 (configuration not stated),inactive: 87%
4,COc1ccc(NC(=O)CCS(=O)(=O)c2nc(-c3cccs3)cc(C(F)(F)F)n2)cc1,inactive: 73%
5,CCCc1cc(=O)n2c(C(=O)Nc3ccc(OCC)cc3)c(C(=O)Nc3ccc(C)cc3)sc2n1,inactive: 84%
6,CCc1nc2ccccc2n1CCO,inactive: 101%
7,COc1ccc(CNc2nc(-c3ccccc3)nn2S(=O)(=O)c2ccccc2)cc1,active: 4%
8,CN(CC(=O)NCc1ccc(Cl)cc1)S(=O)(=O)c1ccc2[nH]c3c(c2c1)CCCC3,inactive: 99%
9,CC(C(=O)O)N1c2cccc3cccc(c23)S1(=O)=O (configuration not stated),inactive: 99%
10,CCn1c(SCc2ccccc2C)nc(=O)c2c(C(=O)OC)cc(C3CC3)nc21,inactive: 70%
11,COc1ccccc1CNC(=O)CCC1N=C2c3ccccc3N=C(SCC(=O)Nc3ccc(F)cc3)N2C1=O (configuration not stated),inactive: 91%
12,Cc1ccc2c(c1)c1c(c(=O)n(-c3cccc(Cl)c3)c(=O)n1CC(=O)NCCC1=CCCCC1)n2C,inactive: 67%
13,O=C(Nc1nnc(-c2cc(Cl)ccc2Cl)o1)c1ccc2c(c1)OCCO2,inactive: 72%
14,Cc1cc(=O)oc2cc(OCC(=O)NCc3ccco3)ccc12,inactive: 93%
15,COc1ccc(-n2c(Cc3ccccc3)nnc2SCc2nc(-c3cccs3)no2)cc1,inactive: 77%
16,O=C(CCCc1ccccc1)N1CCN(c2ccccn2)CC1,inactive: 87%
17,O=c1cc(CSc2ncn[nH]2)[nH]c2ccc(F)cc12,inactive: 80%
18,CCOC(=O)C1CCC(CN(Cc2ccc(OC)cc2)S(=O)(=O)c2ccc(F)c(C(=O)Nc3ccc(C)c(C)c3)c2)CC1 (configuration not stated),inactive: 73%
19,CCc1ccc(NS(=O)(=O)c2ccc3oc(=O)c4ncn(CC)c4c3c2)cc1,inactive: 96%
20,CCCc1nc2ccc(NC(=O)c3ccco3)cc2c(=O)n1Cc1ccccc1Cl,inactive: 101%
21,CCC1CN(C(=O)N2CCC(C(=O)NCCc3cc(OC)ccc3OC)CC2)c2ccccc2O1 (configuration not stated),inactive: 81%
22,O=C(NN=C1CCCCC1)c1n[nH]c2c1CCC2,inactive: 111%

row,Compound,survival
1,CCN(CC)S(=O)(=O)c1ccc2c(c1)N(CC(=O)N1CCN(c3cccc(Cl)c3)CC1)C(=O)CO2,inactive: 71%
2,O=C(CN1C(=O)c2ccccc2C1=O)Nc1cccnc1,inactive: 102%
3,CN(C)C1(CNC(=O)COc2ccc([N+](=O)[O-])cc2)CCCCC1,inactive: 107%
4,COc1cccc(-n2cc(C(=O)Nc3cccc(C(F)(F)F)c3)c3ccccc3c2=O)c1,inactive: 88%
5,CC(C)Oc1ccc(CNC(=O)c2ccc(CS(=O)c3cccc(Cl)c3)o2)cc1 (configuration not stated),inactive: 90%
6,COc1ccccc1N1CCN(C(=O)Cn2ncc3ccsc3c2=O)CC1,inactive: 127%
7,Cc1ccc(NC(=O)N2CCc3cc(S(=O)(=O)N4CCC(C)CC4)ccc32)cc1,inactive: 119%
8,O=C(Cn1nnc(-c2ccccc2NC(=O)c2cnccn2)n1)Nc1ccc2c(c1)OCCO2,inactive: 117%
9,CCN(C(=O)Cn1c(=O)n(CCCS(=O)(=O)C2CCCCC2)c(=O)c2ccccc21)c1cccc(C)c1,inactive: 112%
10,CCn1c(CN2CCOCC2)nc2cc(NC(=O)c3ccccc3[N+](=O)[O-])ccc21,inactive: 81%
11,CC1CCN(C(=O)Cn2c(=O)n(CCCCCC(=O)NCc3ccccc3Cl)c(=O)c3sccc32)CC1,inactive: 94%
12,CC(=O)Nc1cc(-c2nc3cc(Cl)ccc3o2)ccc1C,inactive: 86%
13,CCn1cnc2sc(C(=O)Nc3ccccc3)c(C)c2c1=O,inactive: 107%
14,Cc1ccc(Cl)cc1Nc1nn2c(=O)c3ccc(C(=O)Nc4ccc(F)cc4)cc3nc2s1,inactive: 113%
15,Cc1ccc(NC(=O)CSCC(=O)O)cc1,inactive: 103%
16,Cc1cc(Cl)ccc1NC(=O)Cn1nc(C)c2c(C)n(-c3ccccc3)nc2c1=O,inactive: 45%
17,CCN(CC)CC(=O)Nc1ccc(-c2ccc(NC(=O)CN(CC)CC)cc2)cc1,inactive: 104%
18,Cc1[nH]n(-c2ccccc2)c(=O)c1C(c1cc(Cl)ccc1O)c1c(C)[nH]n(-c2ccccc2)c1=O,inactive: 60%
19,CCCCC(c1nnnn1CCc1ccccc1)N1CCN(C2CCCC2)CC1 (configuration not stated),inactive: 101%
20,COCCCNc1nc2c(S(=O)(=O)c3ccccc3)nnn2c2ccc(Cl)cc12,inactive: 92%
21,O=C(NCc1cccs1)c1nn(-c2ccccc2Cl)nc1CO,inactive: 116%
